Hit rate of the full screen: of about 44,000 compounds, about 340 (0.77%) were called active. Roughly 5% stayed inconclusive and do not appear here. Calls come from the whole dose curve; as a rule, active = well fitted inhibition curve with a large enough effect; inconclusive = small, poorly fitted or top-dose-only effect; inactive = flat fitted curve, though single readings scatter. The list shows a part of the results.
assay: Acumen qHTS Assay for Inhibitors of the mTORC1 Signaling Pathway in MEF (Tsc2-/-, p53-/-) Cells: Sytravon; conditions: phospho-rpS6 immunofluorescence/PI, 24 h; series mostly up to 38.3 µM; activity change, negative = inhibition: at the top concentration; note: nearly all actives have a fitted effect of over 50% in size;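 for activity change, negative = inhibition: plate controls were DMSO for no effect and rapamycin for full effect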
Method in brief: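 Compounds act on Tsc2-/-, p53-/- fibroblasts carrying an empty vector for 24 h before fixation and dual staining for phospho-S6 and DNA (propidium iodide). Values are percentages of cells above a rapamycin-defined pS6/PI threshold.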
Potency is the fitted concentration of half-maximal effect.

| SMILES | activity change, negative = inhibition | Potency |
| --- | --- | --- |
| O=C(c1ccccc1Br)N(Cc1ccco1)C1CCS(=O)(=O)C1 (stereo not given) | inactive: 0.277% | – |
| O=C(c1ccc2c(c1)N(Cc1ccccc1)C(=O)c1ccccc1S2(=O)=O)N1CCCC1 | inactive: -4.97% | – |
| CCC(Sc1nc2c(sc3ccccc32)c(=O)n1CCc1ccccc1)C(=O)N(CC)CC (stereo not given) | inactive: 3.09% | – |
| COc1cccc(CCNC(=O)Cn2c(-c3cccs3)cc3ccccc32)c1 | inactive: -0.904% | – |
| Cc1ccc(C)c(N2CCN(C(=O)Nc3cn(CC(C)C)c(=O)c4ccccc34)CC2)c1 | inactive: 1.21% | – |
| COc1ccc(NC(=O)CN2C(=O)C(c3ccc(C(C)(C)C)cc3)=NC2(C)C)cc1Cl | inactive: -1.27% | – |
| Cc1cccc(Cc2cnc(NC(=O)C3Cc4ccc(C)cc4C(=O)O3)s2)c1 (stereo not given) | inactive: -1.71% | – |
| COc1ccccc1N1CCN(C(=O)C2CCN(S(=O)(=O)c3c(C)noc3/C=C/c3ccc(C)cc3)CC2)CC1 | inactive: -0.175% | – |
| CCCCn1c(SCC(=O)Nc2cccc(OC)c2)nc2c(sc3ccccc32)c1=O | inactive: -4.24% | – |
| COc1cccc(Cn2c(=O)n(CC3CCC(C(=O)N4CCCCC4)CC3)c(=O)c3sccc32)c1 (stereo not given) | inactive: -6.12% | – |
| CCOC(=O)N1CCN(Cc2nc3cc(NC(C)=O)ccc3n2C(C)C)CC1 | inactive: -31.1% | – |
| Cc1cc(C)cc(-n2c(SCC(=O)NCc3ccco3)nc3c([nH]c4ccccc43)c2=O)c1 | inactive: -19.5% | – |
| CC(C)NC(=O)CCn1c(SCc2c(F)cccc2Cl)nc2c(sc3ccccc32)c1=O | inactive: -2.58% | – |
| COc1cccc(NC(=O)CSc2nnc(COc3ccc(Cl)cc3)o2)c1 | inactive: -0.582% | – |
| COc1ccc(NC(=O)NCCc2c(C)nn(C)c2C)c(OC)c1 | inactive: 0% | – |
| Cc1nnc2c(N3CCN(c4ccccc4F)CC3)nc3ccccc3n12 | inactive: 2.76% | – |
| CCOC(=O)c1cc(-c2ccc(C)cc2)n(CCC(=O)Nc2nc3c(C)cccc3s2)c1C | inactive: 0.519% | – |
| Cc1ccc2c(c1)c(=O)c1ccccc1n2CCCC(=O)Nc1ccc(C)c(F)c1 | inactive: 21.4% | – |
| Cc1cc(-n2c(SCC(=O)NCc3ccccc3)nc3ccsc3c2=O)ccc1Cl | inactive: 1.44% | – |
| CCc1cccc(C)c1NS(=O)(=O)c1cc(-c2cc(C)no2)ccc1C | inactive: 0% | – |
| Cc1ccc(-n2nnc(-c3nsc(NC(=O)c4ccccc4)n3)c2C)cc1 | inactive: -3.52% | – |
| Cc1ccc(-n2nc3ccc(NC(=O)c4oc5ccc(C)cc5c4C)cc3n2)cc1 | inactive: -2.52% | – |
| CCOc1ccc(OCC(=O)NCCS(=O)(=O)N2CCN(c3ccc(F)cc3)CC2)cc1 | inactive: -15.2% | – |
| O=C(CCC1CCCC1)N1CCc2c([nH]c3ccccc23)C1c1ccc(Cl)cc1 (stereo not given) | inactive: 0% | – |

| SMILES | activity change, negative = inhibition | Potency |
| --- | --- | --- |
| CCCOc1ccccc1C(=O)N1CCCCC1CCN1CCOCC1 (stereo not given) | inactive: 1.59% | – |
| CCN(C(=O)Cn1ncc2c(=O)oc3ccc(C)cc3c21)c1cc(OC)ccc1OC | inactive: -4.55% | – |
| CCOC(=O)C1CCCN(S(=O)(=O)c2ccc(N3CCCCS3(=O)=O)cc2)C1 (stereo not given) | inactive: 0% | – |
| CC1CCc2noc(NC(=O)c3ccccc3[N+](=O)[O-])c2C1 (stereo not given) | inactive: -11.5% | – |
| Cc1cc(C(F)F)n2nc(C(=O)Nc3cc(Cl)ccc3C)nc2n1 | inactive: 1.27% | – |
| CN1CCN(C(=O)c2ccc3c(c2)N(Cc2cccc(Cl)c2)C(=O)c2ccccc2S3(=O)=O)CC1 | inactive: -6.03% | – |
| COc1ccccc1CNC(=O)C1CCN(S(=O)(=O)c2c(C)noc2/C=C/c2c(C)cc(C)cc2C)CC1 | inactive: -9.15% | – |
| O=C(Nc1ccc2nc(SCCOc3ccccc3)sc2c1)c1cccs1 | inactive: -3.47% | – |
| COc1cccc(CNC(=O)CSc2ncc3c(n2)-c2cc(Cl)ccc2N(C)S3(=O)=O)c1 | inactive: 0% | – |
| CCOc1ccccc1NC(=O)c1sc2nc(C)cc(C)c2c1N | inactive: 2.76% | – |
| Cc1coc2c(C)c3oc(=O)c(CC(=O)NCc4ccccc4)c(C)c3cc12 | inactive: 3.03% | – |
| Cc1c(Cl)cccc1NC(=O)CN1C(=O)COc2ccc(S(=O)(=O)N3CCCCCC3)cc21 | inactive: 2.19% | – |
| COc1cccc(CNC(=O)CN2C(=O)CSc3c2c(C)nn3-c2ccccc2)c1OC | inactive: -0.355% | – |
| Cc1cccc(C)c1NC(=O)c1nc(S(C)(=O)=O)ncc1N(Cc1ccc(F)cc1)Cc1ccco1 | inactive: -14.3% | – |
| Cc1ccc(Cl)cc1-n1c(=O)c2sc3ccccc3c2n(CC(=O)NC2CCCCC2)c1=O | inactive: -0.626% | – |
| COc1ccc(CNC(=O)Cn2c(=O)oc3cc(S(=O)(=O)N4CCC(C)CC4)ccc32)cc1 | inactive: -0.233% | – |
| CCOC(=O)c1cnc2c(C)cc(C)cc2c1NCCc1ccc(OC)c(OC)c1 | inactive: 0.147% | – |
| COc1ccc(C(=O)N(Cc2ccc(N(C)C)cc2)Cc2ccco2)cc1Cl | inactive: 1.58% | – |
| Cc1cc(-c2ccc(C)c(S(=O)(=O)Nc3ccccc3C(F)(F)F)c2)on1 | inactive: -7.68% | – |
| Cc1ccc2c(CC(=O)NCc3ccccc3)coc2c1C | inactive: -24.1% | – |
| O=c1c2sc3ccccc3c2n(Cc2ccccc2Cl)c(=O)n1Cc1ccccc1 | inactive: -12.6% | – |
| Cc1ccc(C)n1-c1c(C(=O)NCC(C)c2ccccc2)sc2ncccc12 (stereo not given) | inactive: -7.59% | – |
| COc1ccc(NC(=O)CCCn2c(=O)c3cccn3c3ccccc32)c(OC)c1 | inactive: 0.686% | – |
| COc1ccc(C(=O)Oc2c(Sc3ccc(Cl)cc3)c(C)nn2C(C)(C)C)cc1OC | inactive: 3.03% | – |

| SMILES | activity change, negative = inhibition | Potency |
| --- | --- | --- |
| O=C(NCCc1csc(-c2ccc(C(F)(F)F)cc2)n1)C(=O)Nc1cc(F)ccc1F | inactive: -2.89% | – |
| CCCCN(C)CCNC(=O)C1CCCN(S(=O)(=O)c2ccc3c(c2)oc(=O)n3C)C1 (stereo not given) | inactive: 11.8% | – |
| Cc1c(CCNC(=O)Cc2ccc(F)cc2)sc2nc(-c3ccc(F)cc3)nn12 | inactive: -11.4% | – |
| O=C(Cn1c(=O)c2ccccc2n(CC(=O)Nc2ccc(Cl)cc2)c1=O)NCCc1ccccc1 | – | active: 16.5 µM |
| CCc1ccccc1NC(=O)Cn1c(=O)n(CCCS(=O)(=O)C2CCCCC2)c(=O)c2ccccc21 | inactive: -2.07% | – |
| CCOc1ccc(C(=O)Nc2cccc(OCc3cc(=O)n4ccccc4n3)c2)cc1 | inactive: -11.7% | – |
| Cc1ccccc1NS(=O)(=O)c1nnc(NC(=O)c2ccc(Cl)cc2)s1 | inactive: 5.88% | – |
| CCOC(=O)c1[nH]c(C)c(CCC(=O)Nc2ccc(C(C)=O)cc2)c1C | inactive: 0.839% | – |
| O=S(=O)(Nc1cccc(-c2ccc(N3CCCCCC3)nn2)c1)c1ccc(F)cc1 | inactive: 0.435% | – |
| Cc1cccc(CNS(=O)(=O)c2csc(C(N)=O)c2)c1 | inactive: 3.62% | – |
| O=C1C(c2cccc(Br)c2)N(CCc2ccccc2)C(=O)CN1C1CCCCC1 (stereo not given) | inactive: -0.455% | – |
| CCOc1cccc(CNCCNC(=O)c2nonc2N)c1 | inactive: -10.2% | – |
| Cc1ccc(Cl)cc1NC(=O)C1CCCN(S(=O)(=O)c2cccc3cccnc23)C1 (stereo not given) | inactive: -11.9% | – |
| COc1ccccc1CNC(=O)CSc1nc2nc(C)c(Cc3ccccc3Cl)c(C)n2n1 | inactive: -23.1% | – |
| COc1ccc(N2C(=O)CS(=O)(=O)C23C(=O)N(Cc2ccc(F)cc2)c2ccc(C)cc23)cc1 (stereo not given) | inactive: -14.2% | – |
| CCC(=O)N1CCc2cc(Br)cc(S(=O)(=O)N3CCCC(C(=O)Nc4cccc(C)c4C)C3)c21 (stereo not given) | inactive: -3.52% | – |
| CC(CNC(=O)CN1C(=O)COc2ccc(S(=O)(=O)N3CCCCCC3)cc21)c1ccccc1 (stereo not given) | inactive: -1.73% | – |
| COc1ccc(CCNC(=O)c2cccc(-n3cnc4cccnc43)c2C)cc1OC | inactive: -4.4% | – |
| CCCCNC(=O)c1nn(-c2ccc(C)cc2)c(=O)n(C)c1=O | inactive: 3.8% | – |
| Cc1ccccc1CNC(=O)c1cccc(NC(=O)N2CCSc3ncccc32)c1 | inactive: -4.73% | – |
| CCOC(=O)c1c(S(=O)(=O)N2CCCC(C(=O)Nc3cccc(C#N)c3)C2)c(C)n(C)c1C (stereo not given) | inactive: -1.16% | – |
| CC(Oc1ccccc1)C(=O)Nc1ccc(OCc2cc(=O)n3ccsc3n2)cc1 (stereo not given) | inactive: 0.892% | – |
| Cc1cc2c(cc1S(=O)(=O)N(C)CC(=O)Nc1ccc(C#N)cc1)OCC(=O)N2 | inactive: -2.1% | – |
| NS(=O)(=O)c1ccc(CCNC(=O)c2ccc3nc(CCc4ccccc4)oc3c2)cc1 | inactive: -4.68% | – |

| SMILES | activity change, negative = inhibition | Potency |
| --- | --- | --- |
| CCOC(=O)c1c(S(=O)(=O)NCC(=O)Nc2ccc(C)c(N(C)C)c2)c(C)n(C)c1C | inactive: -0.99% | – |
| Cn1c(=O)c2c(SCC(=O)NCc3ccco3)nc(-c3cccc(F)c3)nc2n(C)c1=O | inactive: -8.11% | – |
| CCOc1ccc(CC(=O)Nc2c(C(=O)Nc3ccc(OC)cc3OC)oc3ccccc23)cc1 | inactive: -2.52% | – |
| Cc1ccc(S(=O)(=O)c2cn(CC(=O)Nc3ccccc3C)c3cc4c(cc3c2=O)OCO4)cc1 | inactive: -3.23% | – |
| CC(C)c1nc2ccc(C(=O)NCCCN3CCN(c4cccc(Cl)c4)CC3)cc2o1 | inactive: 3.63% | – |
| Cc1cccc(N2CCN(C(=O)CN3C(=O)COc4ccc(S(=O)(=O)N5CCC(C)CC5)cc43)CC2C)c1 (stereo not given) | inactive: -6.5% | – |
| CCOC(=O)N1CCN(Cc2nc3cc([N+](=O)[O-])ccc3n2C(C)C)CC1 | inactive: -16.8% | – |
| CCOc1ccc(CNC(=O)c2cnc3sc(N4CCOCC4)nn3c2=O)cc1OC | inactive: 1.45% | – |
| CCOC(=O)C1CCC(CN(Cc2ccc(Cl)cc2)S(=O)(=O)c2cc(Cl)cc(Cl)c2)CC1 (stereo not given) | inactive: 4.71% | – |
| Cc1ccc2scc(N3CCC(C)CC3)c(=O)c2c1 | inactive: 4.38% | – |
| COc1cccc(NS(=O)(=O)c2ccc3c(c2)[C@H]2C=CC[C@H]2[C@@H](c2ccccc2Cl)N3)c1 | inactive: -3.31% | – |
| Cc1cccn2c(Nc3ccccc3)c(-c3cccs3)nc12 | inactive: -1.74% | – |
| Cc1[nH]c2ccccc2c1C(c1ccccc1)c1ccc(Cl)s1 (stereo not given) | inactive: -29.4% | – |
| CCOc1ccccc1NC(=O)CCn1cnnn1 | inactive: -0.0748% | – |
| COc1cccc(CNC(=O)Cc2ccc(NC(=O)N3CCSc4ncccc43)cc2)c1OC | inactive: -5.01% | – |
| Cc1ccccc1CNc1nc(N(C)C)nc2c1cnn2C | inactive: -1.35% | – |
| Cc1ccc(NC(=O)C2CCN(S(=O)(=O)c3ccc4[nH]c(=O)ccc4c3)CC2)cc1C | inactive: 9.26% | – |
| CCc1cccc(CC)c1NC(=O)Cn1c(=O)c(-c2cc(C)ccc2NC(C)=O)nc2ccccc21 | inactive: 1.78% | – |
| CCc1ccc(CN(Cc2ccco2)c2cnc(S(C)(=O)=O)nc2C(=O)Nc2c(C)cccc2C)cc1 | inactive: -13% | – |
| Cn1c(=NC(=O)c2ccc(S(=O)(=O)N3CCCC3)cc2)sc2cc(F)ccc21 | inactive: 7.28% | – |
| CCc1ccccc1NCc1nnc2n1CCCCC2 | inactive: 0.164% | – |
| O=C1COc2cc(S(=O)(=O)CCC(=O)N3CCN(c4ccccc4F)CC3)c(Cl)cc2N1 | inactive: -1.23% | – |
| Cc1ccc(-c2nnc(SCC(=O)c3ccc(Cl)cc3)n2-c2ccccc2)cc1 | inactive: 3.55% | – |

From PubChem BioAssay AID493208 (National Center for Advancing Translational Sciences (NCATS), 2011)
